In all, about 110,000 compounds were measured (“z-score”: median about -0.1, highest 2% from about 2 on). This is one part of the list.

From PubChem BioAssay AID488969 (Vanderbilt High Throughput Screening Facility, 2010) come the findings set out here.

The target in this assay is Metabotropic glutamate receptor 8 (Rattus norvegicus) (UniProt P70579). Nature of the assay: rat mGluR8 modulators via GIRK flux, primary screen, cell-based, thallium flux, HTS (AID 488969). To be noted: HEK293 rat mGluR8, GIRK (G protein-gated inwardly rectifying potassium channel) thallium flux, FluoZin2; at 10 µM; stronger effect = higher value.
Sequence of UniProt P70579 (P70579 whole entry, looked up): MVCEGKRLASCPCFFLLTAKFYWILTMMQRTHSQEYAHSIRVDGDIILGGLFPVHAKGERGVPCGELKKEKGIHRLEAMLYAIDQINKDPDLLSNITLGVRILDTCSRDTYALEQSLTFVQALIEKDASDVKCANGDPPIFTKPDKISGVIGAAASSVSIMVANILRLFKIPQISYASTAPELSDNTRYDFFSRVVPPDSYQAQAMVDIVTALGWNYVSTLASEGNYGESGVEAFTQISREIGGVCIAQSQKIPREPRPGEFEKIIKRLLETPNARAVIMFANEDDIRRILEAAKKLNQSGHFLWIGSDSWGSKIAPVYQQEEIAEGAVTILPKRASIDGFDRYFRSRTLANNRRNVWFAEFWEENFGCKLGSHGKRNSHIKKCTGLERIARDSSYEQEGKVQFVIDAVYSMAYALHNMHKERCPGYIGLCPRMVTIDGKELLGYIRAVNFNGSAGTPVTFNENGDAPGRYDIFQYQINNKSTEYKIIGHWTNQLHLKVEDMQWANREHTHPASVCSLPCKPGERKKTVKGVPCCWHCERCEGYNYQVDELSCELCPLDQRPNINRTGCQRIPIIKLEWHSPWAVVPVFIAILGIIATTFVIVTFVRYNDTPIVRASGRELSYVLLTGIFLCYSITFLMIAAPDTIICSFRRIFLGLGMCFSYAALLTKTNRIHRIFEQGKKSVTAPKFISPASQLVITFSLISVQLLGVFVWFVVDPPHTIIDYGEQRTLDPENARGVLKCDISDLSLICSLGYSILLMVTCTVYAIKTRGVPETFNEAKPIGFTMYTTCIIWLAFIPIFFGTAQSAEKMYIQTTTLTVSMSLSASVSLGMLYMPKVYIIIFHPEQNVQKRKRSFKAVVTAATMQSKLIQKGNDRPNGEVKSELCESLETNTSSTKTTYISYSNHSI
`CC1N(O)C2CCCCCC2N1O` (stereo not given) displayed a z-score of -0.06.

As for `c1ccc(CNCCc2ccc3c(c2)OCO3)nc1`, the z-score was -0.496.

Compound `CCC(C)C1N=C(c2ccccc2)c2cc(Cl)ccc2N(CC(=O)NCc2ccco2)C1=O` (stereo not given) displayed a z-score of -0.0258.

As to `NCC(CC(=O)O)c1ccc(Cl)cc1` (stereo not given), the z-score was -0.308.

Take `CCOc1ccc(Br)c(C2(O)CC(C)N(C)CC2C)c1` (stereo not given): the z-score is 2.44.

For the compound `Cc1nnc(SCc2nc3ccccc3c(=O)n2-c2ccccc2Cl)n1N`, the z-score was found to be 0.0121.

With `CC1(C)CC(=O)C=C(NCCN2CCN(C(=O)Cc3ccc(Cl)cc3)CC2)C1`, the z-score was 0.295.

Compound `COc1ccc(CN2CCCCC2c2cccnc2)cc1C` (stereo not given) registered a z-score of 0.361.

The compound `COCCOC(=O)C1=C(N)OC(C)=C(C(=O)OC)C12C(=O)Nc1ccccc12` (stereo not given) showed a z-score of 0.0698.

For the compound `CC1=NN(c2ccccc2)C(=O)C1/C=C1\C(=O)NC(=O)N(c2cc(C)cc(C)c2)C1=O` (stereo not given), the z-score is -0.0364.

For `COc1ccc(C)cc1NC(=O)c1c(C)nn(Cc2ccccc2)c1Cl`, the z-score is -0.162.

Turning to `COc1ccc(C(=O)CC2C(=O)N(C)C(=O)N(C)C2=O)cc1`, the z-score turned out to be 0.025.

`CN(C)C(=O)OCc1n(C)cc[n+]1C` came in with a z-score of -0.382.

`O=c1[nH]c(O)c(C=NC2CCN(Cc3ccccc3)CC2)c(=O)[nH]1` registered a z-score of -0.0295.

Compound `COc1ccc(C(=O)C2CN(C)CC2C(=O)c2ccc(OC)cc2)cc1` (stereo not given) came in with a z-score of 0.0315.

The compound `Cc1ccc(-n2c(O)c(/C=N/NC(=O)c3ccncc3)c(=O)[nH]c2=O)cc1` came in with a z-score of 1.34.

With `CC(C)N1C(=O)CCC1C(=O)N1CCC2(CC1)OCCO2` (stereo not given), the z-score turned out to be 0.254.

Take `NCC1(c2ccc3c(c2)OCCO3)CCCC1`: the z-score was -0.026.

As for `COc1ccc(C2SCC(=O)Nc3c2c(C)nn3C2CCOC(C)(C)C2)cc1` (stereo not given), the z-score is -0.154.

Compound `Cc1nn(Cc2ccccc2Cl)c(Cl)c1C(=O)OCC(=O)NCc1ccco1` had a z-score of -0.981.

As for `O=C(Cn1c(=S)[nH]c2ccccc2c1=O)N1CCC2(CC1)OCCO2`, the z-score was 0.264.

As for `O=C(CN1CCCCC1)Nc1ccc(Br)cc1C(=O)c1ccccc1Cl`, the z-score is -0.309.

In turn, `CCCCn1c(O)c(C(C)=Nc2c(C)n(C)n(-c3ccccc3)c2=O)c(=O)[nH]c1=O` gave a z-score of -0.414.

With `Cc1ccc2c(c1)C1CN(C)CCC1N2C(=O)Nc1cccc(C(F)(F)F)c1` (stereo not given), the z-score was 0.445.

`CCOP(=O)(OCC)C(O)c1ccc(Br)cc1` (stereo not given): the z-score was -0.0404.

Regarding `CN1/C(=C\C=Nc2ccccc2)C(C)(C)c2ccccc21`, the z-score was -0.319.

In turn, `CC1=NN(c2ccccc2)C(=O)C1/C=C1\C(=O)NC(=O)N(c2ccc(C)c(C)c2)C1=O` (stereo not given) yielded a z-score of -0.517.

Take `CN(C(=O)Oc1ccc(Cl)c2cccnc12)c1ccccc1`: the z-score is -0.251.

Regarding `Cc1c(C(c2ccc(O)cc2)c2c(O)c3ccccc3oc2=O)c(=O)n(-c2ccccc2)n1C` (stereo not given), the z-score was -0.327.

For `CCC(CC)NC1CCCCC1OC` (stereo not given), the z-score was -0.0362.

Regarding `Cc1ccccc1NP(=O)(Oc1ccccc1F)Oc1ccccc1F`, the z-score is -0.294.

On to `COc1ccc(-n2c(=O)[nH]c3ccccc3c2=O)cc1`, for which the z-score is 0.343.

As for `N[C@@H](Cc1c[nH]c2ccccc12)c1nnc(SCc2ccccc2F)o1`, the z-score is -0.0332.

For `Cc1ccc(N2C(=O)CC(=O)NC2=O)cc1`, the z-score was -0.347.

For the compound `Cc1ccc(-c2nc3ccccc3c(=O)n2-c2ncccc2C)cc1`, the z-score is 0.068.

For the compound `COC(=O)CC1NC2CCCCC2NC1=O` (stereo not given), the z-score was -0.179.

On to `CC(=O)Nc1cc(C(=O)N2CCC3(CC2)OCCO3)ccc1Sc1ccc(C)cc1`, for which the z-score was 0.27.

Take `O=C(CN1CCOCC1)Nc1ccc(Br)cc1C(=O)c1ccccc1`: the z-score was -1.1.

`CCOC(=O)c1[nH]c(C)c(C(=O)N2CCC3(CC2)OCCO3)c1C` gave a z-score of 0.012.

`Cc1nonc1-c1nc(-c2nonc2N)n[nH]1` came in with a z-score of -0.139.

For the compound `CCCCN1C(=O)/C(=C/C=C/c2ccco2)C(=O)NC1=S`, the z-score came out at 0.136.

As for `Cc1ccc(CN2CCN(CC(=O)N3CCC4(CC3)OCCO4)C2=O)cc1`, the z-score was -0.217.

Take `CCN(CC)c1ccc(/C=C2/C(=O)NC(=O)N(Cc3ccco3)C2=O)cc1`: the z-score stood at 0.102.

`C(=NC12CN3CN(CN(C3)C1)C2)c1cccnc1` registered a z-score of 1.63.

In turn, `CCc1ccc(OCCCN=C(C)c2c(O)n(C)c(=O)n(C)c2=O)cc1` displayed a z-score of 1.02.

Consider `O=c1c2ccccc2nc(CN2CCOCC2)n1-c1ccccc1F`, for which the z-score was found to be 0.0334.

Regarding `CCCCN1C(=O)NC(=O)C2(Cc3c(nc4c(C)cccn4c3=O)N3CCc4ccccc4C32)C1=O` (stereo not given), the z-score is -1.19.

`CCC(=O)N1CCN(CCN=Cc2c(O)n(C)c(=O)n(C)c2=O)CC1` returned a z-score of -0.0785.

`COc1cccc(C2(O)CCSCC2CN(C)C)c1` (stereo not given) returned a z-score of -1.53.

In the case of `CCOC(=O)c1c(C)n(C(C)C)c2ccc(OC(=O)c3ccc(N4C(=O)CCC4=O)cc3)cc12`, the z-score is -0.0748.

Compound `COc1ccc(C2NCc3ccc4c(c3-n3cccc32)OCO4)cc1O` (stereo not given) displayed a z-score of 2.45.

Turning to `CN1C(=O)C(C2c3ccccc3C(=O)N2Cc2ccc([N+](=O)[O-])cc2)C(=O)N(C)C1=O` (stereo not given), the z-score turned out to be 0.0495.

Take `COCCNC(=O)c1c(NC(=O)c2ccco2)n(Cc2ccccc2)c2nc3ccccc3nc12`: the z-score was -0.316.

For the compound `Cc1cccc(-n2c(-c3ccco3)nc3ccccc3c2=O)n1`, the z-score is 0.421.

`Cn1c(=O)cc(OCC(=O)N2CCN(C3CCCCC3)CC2)c2ccccc21` had a z-score of 0.321.

On to `CCNC(=O)NC(=O)C(C)OC(=O)c1c(C)nn(Cc2ccccc2)c1Cl` (stereo not given), for which the z-score is -0.313.

Turning to `Cc1ccnc(-n2c(-c3ccco3)nc3ccccc3c2=O)c1`, the z-score amounted to 0.105.

In turn, `COc1ccc(N=C2SCCCN2C)cc1` yielded a z-score of 0.297.

In turn, `O=c1c2ccccc2nc(N2CCCC2)n1-c1ccccc1` came in with a z-score of -0.184.

Consider `COCCNC(=O)c1c(N)n(CCC(C)C)c2nc3ccccc3nc12`, for which the z-score is -0.128.

Consider `CN(C)C1(c2nnnn2-c2ccc(Cl)cc2)CCCCC1`, for which the z-score was -0.982.

On to `Cc1nn(Cc2ccc(Cl)cc2Cl)c(Cl)c1C(=O)Nc1ccc(OC(F)F)cc1`, for which the z-score was -0.265.

For `COc1ccc(C(=O)CC2(CC(=O)c3ccc(OC)cc3)C(=O)N(C)C(=O)N(C)C2=O)cc1`, the z-score was 0.326.

On to `COC(=O)c1ccc(N2C(=O)CC(N3CCC(n4c(=O)[nH]c5ccccc54)CC3)C2=O)cc1` (stereo not given), for which the z-score was -1.07.

Consider `COc1cccc(N2CCN(Cc3cccc(Cl)c3)CC2)c1`, for which the z-score is -0.234.

The compound `CCn1c(O)c(C(=O)CC2NCCc3ccccc32)c(=O)n(CC)c1=S` (stereo not given) returned a z-score of 0.848.

`CN1CCC(OC(=O)C2c3ccccc3Oc3ccccc32)CC1` gave a z-score of 1.83.

In turn, `CC(N)Cc1c[nH]c2ccc(Cl)cc12` (stereo not given) returned a z-score of 0.0126.

`O=[N+]([O-])c1cc2c(cc1CNCCc1ccc3c(c1)OCO3)OCO2` came in with a z-score of 0.309.

Regarding `CCN(CC)c1ccc(CC2C(=O)N(C)C(=O)N(C)C2=O)cc1`, the z-score was found to be 0.254.

`O=Cc1c(C(=O)O)n(Cc2ccc(Cl)cc2)c2ccccc12` displayed a z-score of -0.764.

The compound `CCN(CC)CCN=Cc1c(O)n(C2CCCCCC2)c(=O)[nH]c1=O` came in with a z-score of -0.091.

In the case of `CCCCN1CCC(O)(c2ccccc2)C(C(=O)c2ccccc2)C1` (stereo not given), the z-score was 0.729.

As to `CCNC(=O)C1OC(n2cnc3c(N)ncnc32)C(O)C1O` (stereo not given), the z-score was 2.

Compound `Cc1cc(O)c(CN2CCN(c3ccccc3)CC2)cc1C` came in with a z-score of -0.269.

Regarding `CNC(=O)OCCc1n(C)cc[n+]1C`, the z-score was -0.193.

Regarding `CCCOP(=O)(O)c1c([N+](=O)[O-])cc(C(F)(F)F)cc1[N+](=O)[O-]` (tested in a mixture with another compound), the z-score was determined as 0.344.

For `CCCCCn1c(=O)c(C(=O)NCc2ccncc2)c(O)c2ccccc21`, the z-score is -1.2.

`COc1ccc(CCNCc2ccccc2F)cc1OC` yielded a z-score of 0.874.

Regarding `CC1=C(C(=O)N2CCC3(CC2)OCCO3)C2(CCC(C)CC2)OC1=O` (stereo not given), the z-score came out at 0.154.

The compound `O=C(Nc1cccc(OC(=O)N2CCCCC2)c1)N1CCCCC1` displayed a z-score of -0.102.

Turning to `Cn1c(O)c(C(=O)c2ccccc2Cl)c(=O)n(C)c1=O`, the z-score was -0.534.

`COc1ccc(S(=O)(=O)NC(CC(=O)N2CCC3(CC2)OCCO3)C(C)C)cc1` (stereo not given) yielded a z-score of 0.385.

Regarding `CCC(COC(=O)NC)NC(=O)Oc1cccc(C)c1` (stereo not given), the z-score was -0.336.

`CN(C)c1ccc(/C=C/[N+](=O)[O-])cc1` came in with a z-score of -0.196.

`CC(c1ccccc1)n1cncc1C(=O)O` (stereo not given) displayed a z-score of -1.5.

With `CCN(CC)c1ccc(N=Cc2c(O)n(-c3ccc(OC)cc3)c(=O)[nH]c2=O)cc1`, the z-score was -0.432.

On to `CCOC(C(=O)OCCCN(CC)CC)(c1ccccc1)c1ccccc1`, for which the z-score was 0.0588.

Turning to `CC(C)Cc1nnc(NC(=O)CCC(=O)N2CCN(CCOC(c3ccccc3)c3ccccc3)CC2)s1`, the z-score was -0.181.

The compound `O=P(O)(O)C12CC3CC(CC(C3)C1)C2` returned a z-score of -0.0471.

`CCOP(=S)(OCC)SCC(=O)NC(C(=O)O)C(C)C` (stereo not given) came in with a z-score of 0.398.

Turning to `CCCCOc1nc2ccccc2c(=O)n1-c1ccccc1`, the z-score was -0.504.

With `COc1ccc(C(C)=O)cc1CC(C(=O)c1ccc(Br)cc1)N(C)C` (stereo not given), the z-score was -0.102.

The compound `C/C(CCc1c[nH]c2ccccc12)=N\O` had a z-score of 0.0995.

As for `CN(C(=O)Oc1ccc(C(=O)c2ccc(Cl)cc2)cc1)c1ccccc1`, the z-score stood at 0.116.

For `CCC(=NCCN1CCCCC1)c1c(O)n(C)c(=O)n(C)c1=O`, the z-score was -0.0797.

`COC(=O)C(O)(c1ccc(N(C)C(=O)c2ccc(Cl)c(Cl)c2)cc1)C(F)(F)F` (stereo not given) registered a z-score of -0.855.

In the case of `O=P(/C(=N/O)N1CCCCC1)(N1CCOCC1)N1CCOCC1`, the z-score turned out to be 0.0346.

The compound `O=c1c2ccccc2nc(/C=C/c2ccc3c(c2)OCO3)n1-c1ccccc1` yielded a z-score of -0.658.

`O=C(c1ccc2c(c1)ncn2C1CCCCCC1)N1CCC2(CC1)OCCO2` had a z-score of -0.0497.

Compound `CC(=O)c1ccc2c(c1)C1C(Cl)C(Sc3ccccc3[N+](=O)[O-])CC1C(c1ccccc1)N2` (stereo not given) yielded a z-score of 0.121.

In turn, `Cc1ccc(-n2c(O)c(C=NC3CCCC3)c(=O)[nH]c2=O)c(C)c1` yielded a z-score of -0.0688.

Regarding `O=C(CNC(=O)c1ccccc1Cl)Nc1ccc(Br)cc1C(=O)c1ccccc1`, the z-score was -0.208.

In turn, `COc1ccc(-n2c(O)c(/C=C/C=Nc3ccccc3)c(=O)[nH]c2=O)cc1` came in with a z-score of -0.724.

The compound `Cn1c(=O)cc(SCC(=O)N2CCC3(CC2)OCCO3)c2ccc(Cl)cc21` had a z-score of 0.392.

`O=c1[nH]c(=O)n(-c2ccccc2)c(O)c1/C=C1/C(c2ccccc2)=Nc2ccccc21` yielded a z-score of 0.732.

Consider `COc1ccc(CCNCc2ccc(SC)cc2)cc1`, for which the z-score amounted to 0.481.

For `COc1cc(CN2CCN(c3cc(C)ccc3C)CC2)ccc1O`, the z-score is -0.932.

Regarding `CC(=NC(C)c1ccccc1)c1c(O)[nH]c(=O)[nH]c1=O` (stereo not given), the z-score worked out at 0.0435.

Compound `O=C1/C(=C/c2ccc([N+](=O)[O-])cc2)N2CCC1CC2` displayed a z-score of 0.00904.
